Data reported in patent US7300770B2, “Detection of microbe contamination on elastomeric articles” (Kimberly-Clark Worldwide, Inc., priority 2004, dated 2007).

Assays:
[1] = system: aged raw chicken juice; assay: Dye spray on aged raw chicken juice pattern and re-colorization with 1 N NaOH; settings: hot plate surface, 160 mg/10 mL acetonitrile spray
[2] = system: budgie feces suspension; assay: N-methyl merocyanine coated towel exposed to budgerigar feces suspension; settings: budgie feces suspension in tap water
From the text: Budgerigar feces was collected from a caged pet budgie, and shaken in approximately 10 milliliters of Atlanta city domestic tap water.

[3] = system: aged urine (approximately 1x10^5 CFU/milliliters); assay: N-methyl merocyanine coated towel exposed to aged female human urine

Compound	Color change on aged raw chicken juice pattern [1]	Color change of coated towel [2]	Color change of coated towel [3]
[O-]c1c(-c2ccccc2)cc(-[n+]2c(-c3ccccc3)cc(-c3ccccc3)cc2-c2ccccc2)cc1-c1ccccc1 [Reichardt's dye, 4-(2,4,6-triphenylpyridinium-1-yl)-2,6-diphenylphenolate]	color change of the dye in the exact form of the pattern of chicken juice		
COc1cc(/C=C/c2cc[n+](C)cc2)ccc1[O-] [N-methyl merocyanine dye]		immediate color change from deep orange to pale yellow	immediate color change from deep orange to pale yellow
